Source: PubChem BioAssay AID652104 (National Center for Advancing Translational Sciences (NCATS), 2013)
In all, about 410,000 compounds went through this assay and about 7,200 (1.8%) were called active. Inconclusive results, whose numbers are uncertain, are shown with a selection of clear calls. Calls follow the shape of the dose curve; as a rule, active = well fitted activation curve with a large enough effect; inconclusive = small, poorly fitted or top-dose-only effect, or another doubt; inactive = no such curve, though single readings can be large or run the other way. Potencies of inconclusive entries are left out as doubtful fits.

assay: qHTS of TDP-43 Inhibitors; conditions: TDP-43 expressing yeast growth rescue, BacTiter-Glo, 24 h; growth rescue (activation): at 46.1 µM (top of the series) unless noted; also: nearly all actives have a fitted effect of over 50% in size; as to growth rescue (activation): % of control where 0% means no effect
Summary of the method: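 Luminescence from BacTiter-Glo reports growth of TDP-43-expressing yeast after 24 hr at 30 deg C with compound. Cells were raffinose-pregrown to mid-log, then seeded in galactose medium at OD600=0.02.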
Potency is read from the fitted curve at half-maximal effect; tags tell the direction and shape of the fitted curve.

Row | Compound | Potency | growth rescue (activation)
1 | COc1ccc(CC(=O)Nc2ccc3nc(Nc4cccc(Cl)c4)cc(C)c3c2)cc1 | inconclusive [activator, partial curve] | –
2 | CCOC(=O)C1CCCN(c2c(C(=O)c3ccc(C)cc3)cnc3ccc(OCC)cc23)C1 (centres undefined) | – | inactive: 0%
3 | O=C(Nc1nc(-c2cccs2)cs1)c1ccc(Cl)s1 | active: 3.55 µM | –
4 | O=C(N/N=C/c1sc(N2CCOCC2)nc1-c1ccccc1)c1ccccc1O | active: 14.1 µM | –
5 | CCOC(=O)N1CCN(C(=O)c2ccc3nc(-c4ccccc4)c(-c4ccccc4)nc3c2)CC1 | active: 17.8 µM | –
6 | Cc1ccccc1OCCCCn1c(C2CC(=O)N(c3ccccc3Cl)C2)nc2ccccc21 (centres undefined) | active: 11.2 µM | –
7 | Cc1cccc(NC(=S)NCC23C=CC(O2)C2C(=O)N(c4ccc(Cl)cc4)C(=O)C23)c1 (centres undefined) | inconclusive [activator, single point] | –
8 | CN(C)S(=O)(=O)c1ccc(-c2csc(-c3cccnc3)n2)cc1 | inconclusive [activator, single point] | –
9 | Cc1ccc(Cl)cc1N1CCN(C(=O)CCn2c(=O)c3cccn3c3cccnc32)CC1 | inconclusive [activator, single point] | –
10 | Cc1ccc(Cl)cc1N1CCN(C(=O)c2ccc(CS(=O)(=O)c3ccc(Br)cc3)o2)CC1 | – | inactive: -12.8%
11 | COc1ccc(CCNC(=O)c2cc3c(-c4ccc(OC)c(OC)c4)nn(C)c3s2)cc1OC | – | inactive: 12.8%
12 | C=C1C(=O)OC2C1CCC(C)=CCCC1(C)OC21 (centres undefined) | active: 14.1 µM | –
13 | CC(C)CNC(=O)COC(=O)c1cncc(Br)c1 | – | inactive: -18.6%
14 | CS(=O)(=O)c1ccc(-c2csc(C(O)(c3ccccc3)C(F)(F)F)n2)cc1 (centres undefined) | inconclusive [activator, single point] | –
15 | Cc1ccc(OCC(=O)NNC(=O)CCc2ccccc2)c(Br)c1 | – | inactive: 0.196%
16 | CC(C)CC1C(=O)N(Cc2cn(CCC3OCCO3)nn2)CCS(=O)(=O)N1Cc1ccc(-c2ccncc2)cc1 (centres undefined) | inconclusive [activator, partial curve] | –
17 | NS(=O)(=O)c1ccc(CCNC(=O)C2CCN(S(=O)(=O)c3cnc[nH]3)CC2)cc1 | – | inactive: -18.1%
18 | COc1ccc(NC(=O)CCc2nc3cccnc3n2-c2ccccc2)cc1Cl | – | inactive: 6.37%
19 | Cc1ncc(CN2CCC(C(=O)Nc3ccc(-n4cccn4)cc3)CC2)s1 | inconclusive [activator, partial curve] | –
20 | Cc1[nH]nc2c1C(c1ccccc1F)NC2=O (centres undefined) | inconclusive [activator, partial curve] | –
21 | Cc1noc(C)c1S(=O)(=O)N(C)C[C@H]1OCCCC[C@@H](C)Oc2ccc(NS(=O)(=O)c3cn(C)cn3)cc2C(=O)N([C@H](C)CO)C[C@@H]1C | inconclusive [activator, single point] | –
22 | COc1cc2c(cc1OC)CN(C(=O)c1cc(C3CC3)nn1-c1ccccc1)CC2 | inconclusive [activator, single point] | –
23 | CC(C)c1ccc(-c2cc(C(=O)N3CCOCC3)c3cc(Br)ccc3n2)cc1 | inconclusive [activator, single point] | –

Row | Compound | Potency | growth rescue (activation)
24 | Cc1ccc(-c2csc(NC(=O)C3=COCCO3)n2)cc1 | inconclusive [activator, single point] | –
25 | O=C(Nc1ccc(Br)cc1)N1CCCCCC1 | inconclusive [activator, partial curve] | –
26 | Cc1cc(SCC(=O)NC(=O)c2cccn2C)nc2ccccc12 | active: 20 µM | –
27 | COc1ccc(C(=O)NCCc2csc(-c3ccc(Cl)cc3)n2)cc1 | inconclusive [activator, partial curve] | –
28 | CCOC(=O)c1ccc(NC(=S)NCCc2ccccc2)cc1 | inconclusive [activator, single point] | –
29 | Cn1cc(CCCC(=O)NCc2cccc(Br)c2)c2ccccc21 | inconclusive [activator, partial curve] | –
30 | COc1ccc(-n2cc(-c3ccccc3)c3c(N4CCCC(C)C4)ncnc32)cc1 (centres undefined) | inconclusive [activator, full curve, poor fit] | –
31 | O=c1c(NCc2cccs2)nccn1-c1ccccc1 | inconclusive [activator, partial curve, poor fit] | –
32 | COc1ccc(OC)c(N(CC(=O)NCCc2ccc(OC)c(OC)c2)S(=O)(=O)c2ccccc2)c1 | inconclusive [activator, partial curve] | –
33 | O=C(O)c1ccc(N2C(=O)C3C4c5ccccc5C(Br)(c5ccccc54)C3C2=O)cc1 (centres undefined) | – | inconclusive: -81.9% [activator]
34 | C=C1C[C@@H]2C[C@@H]2CN(S(=O)(=O)c2ccc(C)cc2)[C@@H]1COCc1ccccc1 | inconclusive [activator, partial curve, poor fit] | –
35 | COc1ccc(F)cc1-c1cc(NC=O)c2ncc(-c3cc(OC)c(OC)c(OC)c3)n2c1 | inconclusive [activator, full curve] | –
36 | COC(=O)CCN(Cc1cc(OC)ccc1OC)S(=O)(=O)c1ccccc1Br | inconclusive [activator, single point] | –
37 | Cc1cccc(NC(=S)N(CCCN2CCOCC2)Cc2ccco2)c1 | – | inactive: 15.2%
38 | CCCCN(C(=O)c1cc(S(=O)(=O)N2CCOCC2)ccc1Cl)c1c(N)n(CC(C)C)c(=O)[nH]c1=O | inconclusive [activator, partial curve, poor fit] | –
39 | O/N=C1\CCCc2oc3c(c21)CCCC3 | inconclusive [activator, single point] | –
40 | COc1ccc(C(=O)Nc2ccccc2)cc1S(=O)(=O)NCc1ccco1 | – | inactive: -21.5%
41 | Cc1ccc2c(CN3CCN(c4ccc(Cl)c(Cl)c4)CC3)cc(=O)oc2c1 | inconclusive [activator, full curve] | –
42 | COc1ccc(C)cc1NC(=O)c1cc2ccccc2o1 | inconclusive [activator, full curve] | –
43 | Cc1ccc(S(=O)(=O)NCCc2nnc3ccc(SCc4ccccc4F)nn23)cc1 | – | inactive: 9.82%
44 | O=[N+]([O-])c1ccc2oc(/C=C/c3ccc(O)cc3)nc2c1 | inconclusive [activator, full curve] | –
45 | CCC(C)C(=O)N1c2ccccc2C(=C2SC(C(=O)OC)=C(C(=O)OC)S2)C(=S)C1(C)C (centres undefined) | inconclusive [activator, partial curve] | –
46 | C/C(N)=C(/C#N)C(=O)CSc1nc2cc(Cl)ccc2s1 | – | inconclusive: 123% [activator]

Row | Compound | Potency | growth rescue (activation)
47 | CN1C(=O)c2cccc(NC(=O)Cc3ccccc3)c2C1=O | inconclusive [activator, partial curve, poor fit] | –
48 | CC(=O)Nc1cc(F)c2c(c1F)Cc1cc(F)ccc1-2 | inconclusive [activator, partial curve] | –
49 | O=C1c2ccccc2C(c2nnnn2C2CCCCC2)N1CCc1ccc(O)cc1 (centres undefined) | inconclusive [activator, partial curve] | –
50 | O=C(Nc1ncn[nH]1)c1ccc(Cl)c(S(=O)(=O)Nc2ccc(Cl)cc2)c1 | – | inactive: 6.58%
51 | CCc1ccc(CNC(=O)Cn2nc(-c3ccc(Cl)cc3)ccc2=O)cc1 | inconclusive [activator, single point] | –
52 | COC(=O)Cc1cc(=O)n(-c2nc3ccccc3s2)[nH]1 | inconclusive [activator, single point] | –
53 | Cc1ccc(COC(=O)c2cc(S(=O)(=O)N3CCOCC3)ccc2C)cc1 | inconclusive [activator, partial curve] | –
54 | COc1cc(Cl)ccc1OCc1cc(C(=O)NCc2cc(C(C)C)no2)no1 | active: 11.2 µM | –
55 | CN(C)/C=C/C(=O)c1cnc2n(c1=O)CCS2 | inconclusive [activator, single point] | –
56 | O=C(C1COc2ccccc2O1)N1CCN(c2ccccc2Cl)CC1 (centres undefined) | inconclusive [activator, single point] | –
57 | CCCN1CCOC(CC(=O)Nc2ccc([N+](=O)[O-])cc2)C1=O (centres undefined) | active: 20 µM | –
58 | CCN(C(=O)COC(=O)c1ccccc1O)c1cccc2ccccc12 | inconclusive [activator, partial curve] | –
59 | Cc1cccc(/C=N/n2c(COc3ccccc3)n[nH]c2=S)c1 | – | inactive: 29.3%
60 | O=C(Nc1ccc(F)cc1)c1oc2ccccc2c1NC(=O)C1CCCCC1 | – | inactive: 14.4%
61 | CC(=O)/C(=N/Nc1cccc(C)c1)N1CCOCC1 | inconclusive [activator, single point] | –
62 | CCN1C(=O)[C@H]2[C@@H](c3ccc(-c4ccc(Cl)c(Cl)c4)cc3)N[C@@](C)(C(=O)OC)[C@H]2C1=O | active: 20 µM | –
63 | CSc1ccccc1NC(=O)c1cccc(S(=O)(=O)N2CCN(C)CC2)c1 | – | inactive: -6.11%
64 | CN(C)c1ccc(/C=C2\SC(N3CCCCC3)=NC2=O)cc1 | active: 22.4 µM | –
65 | COc1ccc(OCC(=O)N2CCN(c3cccc(Cl)c3)CC2)cc1 | inconclusive [activator, partial curve] | –
66 | COCCn1c(SCC(=O)NC2CCCCC2)nnc1-c1ccco1 | – | inactive: -3.16%
67 | O=C(Nc1cccc2ccccc12)N1CCN(c2ncccn2)CC1 | inconclusive [activator, partial curve] | –
68 | O=S(=O)(NCCN1CCCC1)c1ccc(Br)cc1 | – | inactive: -8.17%
69 | Cc1ccc(NC(=O)c2nc[nH]c2C(=O)Nc2ccccc2F)cc1 | inconclusive [activator, partial curve, poor fit] | –
